Results: PubChem BioAssay AID1508642 (National Center for Advancing Translational Sciences (NCATS), 2021)
The campaign covered roughly 43,000 compounds. About 200 (0.47%) were called active. Roughly 12% stayed inconclusive and do not appear here. Calls follow the shape of the dose curve; as a rule, active = well fitted cell-killing curve with a large enough effect; inconclusive = small, poorly fitted or top-dose-only effect, or effect the other way; inactive = flat fitted curve, though single readings scatter. The list shows a part of the results.

Assay: Cell viability qHTS assay in S16 Pmp22-F2sN cells; also: nearly all actives have a fitted effect of over 65% in size
Details: S16 Pmp22-F2sN Schwann cells (luciferase reporters placed in the Pmp22 gene) viability, CellTiter-Glo, 24 h; series mostly up to 57.5 µM; activity change, negative = cytotoxicity: at the top concentration
Outline: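 Rat S16 Schwann reporter line, 24 h treatment with library compounds delivered at 23 nL per well. Cell viability by CellTiter-Glo luminescence.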
% is scaled to controls: 0 for no effect and ±100 for the full control effect.

SMILES	activity change, negative = cytotoxicity
Cc1ccccc1NC(=O)CSc1nc2ccc(NC(=O)c3ccccc3)cc2s1	inactive: 3.64%
COc1ccc(OC)c(CCNc2nccn(-c3ccc(C)c(C)c3)c2=O)c1	inactive: -25.2%
O=C(NCC(c1cccnc1)N1CCOCC1)C(=O)Nc1ccc(F)cc1 (configuration not stated)	inactive: -4.87%
Cn1c(SCc2cccc(F)c2)nc2c([nH]c3ccccc32)c1=O	inactive: 6.04%
CCCn1ccc2c(OCC(=O)Nc3ccccc3OCC)cccc2c1=O	inactive: -4.29%
COc1ccc(Cn2c(=O)[nH]c3cc(C(=O)N4CCN(c5ccccc5)CC4)ccc3c2=O)cc1	inactive: -3.2%
Cc1ccc(CNC(=O)CCC(=O)N2Cc3ccccc3Oc3ncccc32)cc1	inactive: 16%
CCc1ccccc1Nc1cc(C(=O)NCCc2ccccc2)c2ccccc2n1	inactive: -22.1%
COc1ccc(N2CCN(Cc3cc(=O)oc4ccc(OC)cc34)CC2)cc1	inactive: 11%
COc1ccccc1NC(=O)C1=C(C)Nc2nc3ccccc3n2C1c1cccc(Br)c1 (configuration not stated)	inactive: 1.16%
CCOC(=O)c1ccc2c(c1)N(Cc1cccc(C(F)(F)F)c1)C(=O)c1ccccc1S2(=O)=O	inactive: -12.5%
CCCOc1ccc(Nc2cc(C)nc(C)n2)cc1	inactive: 9.22%
COCCCNS(=O)(=O)c1ccc(N2CCCCS2(=O)=O)cc1	inactive: -2.78%
COc1ccc(C(=O)Oc2c(Sc3ccccc3)c(C)nn2-c2ccccc2)cc1OC	inactive: 8.77%
Cc1ccc(NC(=O)CN2C(=O)CSc3ccc(S(=O)(=O)N4CCCC4)cc32)c(C)c1	inactive: 5.07%
O=C(Nc1ccc2nc(SCC(=O)N3CCCc4ccccc43)sc2c1)c1cccc(Cl)c1	inactive: -11%
COc1ccc(CCNC(=O)C2CCN(c3nc4ccccc4nc3C(F)(F)F)CC2)cc1OC	inactive: -21.3%
O=C(Cc1ccc(F)cc1)NCCc1csc(-c2cccc(F)c2)n1	inactive: 13%
CC(C)NC(=O)N1CCC(N2CCN(Cc3ccc(F)cc3)C(=O)C2=O)CC1	inactive: 6.54%
CCOc1ccc(N(CC)S(=O)(=O)N2CCCC(C(=O)NCc3ccc(Cl)cc3)C2)cc1 (configuration not stated)	inactive: -21.5%
COc1ccc(-c2noc(Cn3c(=O)c4ccccc4n(CC(=O)Nc4cccc(C(F)(F)F)c4)c3=O)n2)cc1	inactive: -25.2%
Cc1ccc(C)c(NS(=O)(=O)c2ccc3c(c2)n(C)c(=O)n3C)c1	inactive: -2.92%
Cc1oc(-c2cccc(Br)c2)nc1Cn1c(=O)cc(-c2ccccc2)c2c(C)nn(C)c21	inactive: -2.04%
CCc1nc2onc(C)c2c(=O)n1CC(=O)O	inactive: 12.4%
O=C(c1cccc(Cl)c1)N(Cc1ccco1)Cc1ccccc1Cl	inactive: 0.537%

SMILES	activity change, negative = cytotoxicity
Cc1ccccc1-c1nc(CS(=O)(=O)CC(=O)Nc2cccc(C(F)(F)F)c2)c(C)o1	inactive: 16.6%
COc1ccc2c(c1)c1c(c(=O)n(Cc3ccccc3)c(=O)n1CC(=O)Nc1c(C)cccc1C)n2C	inactive: -1.26%
Cc1ccc(S(=O)(=O)NCCc2sc3nc(-c4ccccc4)nn3c2C)cc1C	inactive: -23%
CCn1c(SCC(=O)N2CCC(C)CC2)nnc1-c1ccccc1O	inactive: -5.67%
CSc1cccc(NC(=O)Cn2nc(C)c3sc4ccccc4c3c2=O)c1	inactive: -17.7%
Cc1cccc(-c2nnc(SCC(=O)N3CCCc4ccccc43)o2)c1	inactive: -1.74%
COc1cc2c(cc1OC)C(COc1ccc(F)cc1)N(C(=O)c1ccccc1F)CC2 (configuration not stated)	inactive: 13.6%
CC(C)OCCCN(C)C1CCN(S(=O)(=O)c2csc(C(N)=O)c2)CC1	inactive: 3.42%
CCOCCCNC(=O)Nc1cc(C(=O)NCc2ccc(C(C)C)cc2)ccc1N1CCCC1	inactive: 4.62%
COc1ccc(-n2c(C)nc3cc(C(=O)NC4CCCC4)ccc32)cc1	inactive: 1.75%
Cc1ccc(S(=O)(=O)c2nnn3c2nc(NCc2cccs2)c2sccc23)cc1C	inactive: -1.55%
Cc1cc(C)cc(NC(=O)C2CCN(c3cc(C)nc4c(-c5ccc(Cl)cc5)c(C)nn34)CC2)c1	inactive: -5.98%
COC(=O)C(C)NC(=O)N1CCN(c2nnc(C)c3c(C)n(-c4ccc(Cl)cc4)nc23)CC1 (configuration not stated)	inactive: 1.22%
CC(C)N(C(=O)c1cc2c(Cl)nc3ccccc3c2s1)C1CCCCC1	inactive: 4.24%
COc1cccc2sc(N3CCN(C(=O)CS(=O)(=O)c4ccc(Cl)cc4)CC3)nc12	inactive: 0.252%
COc1cccc(CNc2ncc(-c3ccc(Br)cc3)n2C)c1	inactive: 8.73%
COc1ccc(-n2c(SCC(=O)Nc3nnc(C)s3)nc3c([nH]c4ccccc43)c2=O)cc1	inactive: -15.1%
CCOC(=O)c1scc(-c2ccc(C)cc2)c1S(=O)(=O)Nc1cccc(CC)c1	inactive: 6.3%
O=C(NCCCN1CCN(c2ccccc2)CC1)c1nnc(Cc2ccc(F)cc2)o1	inactive: -2.38%
O=C(O)CC(NS(=O)(=O)c1ccc(Br)s1)c1ccccc1 (configuration not stated)	inactive: 6.87%
Cc1cc(C)c(S(=O)(=O)N2CCN(Cc3nc4ccc(C)cc4o3)CC2)c(C)c1	inactive: -11.4%
CC1=C(C(=O)Nc2cc(C)ccc2C)C2(CCCCCC2)OC1=O	inactive: -4.98%
Cc1cccc(C(=O)Nc2cc3c(cc2N2CCOCC2)n(C)c(=O)n3C)c1	inactive: 15.9%
CCOC(=O)c1ccccc1Nc1cc(C)nc2nc(-c3ccco3)nn12	inactive: -0.61%
Cn1c(SCC(N)=O)nc2c([nH]c3ccccc32)c1=O	inactive: 18.3%

SMILES	activity change, negative = cytotoxicity
O=C(O)c1ccc(Nc2nc(-c3ccccc3)c3cc(Br)ccc3n2)cc1	inactive: 1.68%
COc1ccc(-c2nc3ccc(NS(C)(=O)=O)cc3o2)cc1	inactive: 8.87%
Clc1ccccc1Cn1cccc1C1=NC(Cc2ccccc2)CO1 (configuration not stated)	inactive: 23.2%
Fc1ccc(-c2nc(-c3cccs3)c(-c3cccs3)[nH]2)cc1	inactive: -0.297%
Cc1nn(-c2ccccc2)c2c1N(CC(=O)NCc1ccc(N(C)C)cc1)C(=O)CS2	inactive: -24%
Cc1cccc(NC(=O)CSc2nc3ccc(NC(=O)COc4ccc(Cl)cc4)cc3s2)c1	inactive: -3.04%
Cc1c(NC(=O)Cc2ccc(F)cc2)cccc1-c1nc2cccnc2s1	inactive: 2.31%
Cc1ccc(N(Cc2cccs2)C(=O)c2ccccc2)cc1	inactive: 2.1%
O=C(NCCOCCO)C(=O)Nc1c2c(nn1-c1ccc(F)cc1)CSC2	inactive: 6.34%
CCC(=O)N1CCc2cc(S(=O)(=O)CCC(=O)N3CCN(c4ccccc4Cl)CC3)ccc21	inactive: 17.5%
CN(c1ncnc2c1c(-c1ccccc1)cn2-c1ccc(F)cc1)C1CCCCC1	inactive: -4.95%
Cc1ccc(CNC(=O)C2CCN(C(=O)c3ccc(-n4ccc5ccccc54)s3)CC2)cc1	inactive: -1.26%
COc1ccc(-c2cn3c(n2)sc2cc(C(=O)NCc4cccs4)ccc23)cc1	inactive: 13.1%
COc1ccc(-c2c3c(=O)n(C)c(=O)n(C)c3cn2-c2cccc(N)c2)cc1	inactive: -12.7%
Cc1ccc(-n2nnc(-c3nsc(NC(=O)c4ccccc4C)n3)c2C)cc1Cl	inactive: 12.9%
CCOc1ccc(Nc2c(S(=O)(=O)c3ccc(Cl)cc3)cnc3ccc(OC)cc23)cc1	inactive: -22.2%
CCn1cc(C(=O)NCCc2ccc(Cl)cc2)c(=O)c2cc(S(=O)(=O)N3CCc4ccccc4C3)ccc21	inactive: 5.2%
COc1ccc(Cn2ccc3nc(C)c(C(=O)Nc4ccc(F)cc4)cc3c2=O)cc1	inactive: 3.29%
O=C1CCc2cc(S(=O)(=O)NCc3ccc(Cl)cc3)cc3c2N1CC3	inactive: 36.2%
COc1cccc(-c2nnc(-c3cc4cc(Cl)ccc4oc3=O)o2)c1	inactive: 5.86%
COc1ccccc1NC(=O)c1oc2ccccc2c1NC(=O)C(C)C	inactive: 17.2%
Cc1cccc(NC(=O)CSc2nnc3scc(-c4ccccc4)n23)c1	inactive: -7.79%
COc1ccccc1NC(=O)Cn1cnc2c(nc3n2CCCCC3)c1=O	inactive: 13.2%
CCC1CCC(C(=O)NC(C(=O)NCCN(CC(C)C)CC(C)C)C(C)C)CC1 (configuration not stated)	inactive: 7.27%
Cc1ccccc1CNC(=O)c1ccccc1NC(=O)c1nsc2ccccc12	inactive: 5.81%

SMILES	activity change, negative = cytotoxicity
CC(C)(C)c1ccc(CSc2nc3c(c(=O)[nH]2)CCCC3)cc1	inactive: 2.96%
O=C(Nc1ccc(Cl)c(C(F)(F)F)c1)C1CCCN(S(=O)(=O)c2cccc3cccnc23)C1 (configuration not stated)	inactive: -7.49%
CC1CCN(S(=O)(=O)c2ccc3c(c2)c(=O)c(C(=O)NCc2ccc(Cl)cc2)cn3C)CC1	inactive: -18.6%
COc1cc(-c2noc(CSc3nc(-c4ccc(F)cc4)cc(=O)[nH]3)n2)cc(OC)c1OC	inactive: -1.35%
CCN1CCN(c2csc3ccc(F)cc3c2=O)CC1	inactive: -0.651%
COc1cccc(-c2nnc3n(Cc4ccc(C)cc4)c(=O)c4ccccc4n23)c1O	inactive: -0.344%
COc1ccc(-c2nc3scc(CCNS(=O)(=O)c4c(C)noc4C)n3n2)cc1OC	inactive: -0.478%
COc1cccc(CNC(=O)c2[nH]c3cc(C)ccc3c2Sc2ccccc2)c1	inactive: -13.5%
CCOC(=O)c1c(S(=O)(=O)NCC(=O)N2CCN(c3cccc(Cl)c3)CC2)c(C)n(C)c1C	inactive: -20%
Cc1cccn2c(=O)cc(CSc3nnc(NC(=O)COc4ccc(F)cc4)s3)nc12	inactive: -0.819%
CCCOc1ccc(C(=O)Nc2ccc3oc(-c4ccc5ccccc5c4)nc3c2)cc1	inactive: 2.28%
CC(=O)c1cccc(NC(=O)CSc2nnc3ccc(-c4ccc(F)cc4)nn23)c1	inactive: 2.36%
Cn1c(=O)c2c(nc(Oc3ccc(C#N)cc3)n2Cc2ccc(Cl)cc2Cl)n(C)c1=O	inactive: 5.06%
CCOC(=O)c1ccccc1NC(=O)Cn1c(=O)n(CCC(=O)NCc2ccccc2OC)c(=O)c2ccccc21	inactive: 16.3%
O=C(NCCc1ccccc1)c1cc(-c2ccc(Br)cc2)on1	inactive: 6.58%
CCOC(=O)c1c(C)oc2ncnc(N3CCN(c4ccc(C)cc4C)CC3)c12	inactive: 17.4%
Cc1sc2ncn(CC(=O)Nc3ccc(F)cc3Cl)c(=O)c2c1S(=O)(=O)N1CCN(c2ncccn2)CC1	inactive: 23.2%
CCOC(=O)c1cccc(-n2nnc3c(sc4nc(C)c(Br)c(C)c43)c2=O)c1	inactive: -2.8%
O=C(Nc1ccc(Br)cc1F)c1cc(S(=O)(=O)NC2CCCC2)ccc1F	inactive: -6.53%
COc1cc(C2CC(=O)c3c([nH]c(C(=O)OCc4ccc(C)cc4)c3C)C2)cc(OC)c1OC (configuration not stated)	inactive: -2.7%
Cc1cccc(C(c2sc3nc(-c4ccco4)nn3c2O)N2CCN(Cc3ccccc3)CC2)c1 (configuration not stated)	inactive: -2.66%
CCOC(=O)c1ccccc1NC(=O)Cn1c(=O)n(CCC(=O)N2CCc3ccccc3C2)c(=O)c2ccccc21	inactive: 9.93%
